Tests used:
[1] = target: Human Norepinephrine Transporter (hNET) (Homo sapiens, UniProt P23975); test: Human Norepinephrine Transporter (hNET) Scintillation Proximity Assay (SPA), competition with [3H]-Nisoxetine; settings: membranes of HEK-293 cells expressing recombinant hNET, Ki by Cheng-Prusoff
[2] = target: T1, Human Serotonin Transporter (hSERT) (Homo sapiens, UniProt P31645); test: Human Serotonin Transporter (hSERT) Scintillation Proximity Assay (SPA), competition with [3H]-Citalopram; type: binding; settings: membranes of HEK-293 cells expressing recombinant hSERT, Ki by Cheng-Prusoff
T1 construct: expressed in transfected cells; membranes prepared from them

7-Chloro-5-(3-methylamino-1-phenyl-propyl)-1H-indole-3-carbonitrile [Compound 20]
pKi NET [1]: 7.41 | pKi SERT [2]: 7.86
